This is one part of the list. Most values come without repeats; read them as rough.
Tests used:
Assay in all cases: cell count relative to DMSO control; melanoma cells; higher = more viable cells
Settings in all cases: library dose: standard library concentration; 72 h
G361 = system: G361
IPC-298 = system: IPC-298
IST-MEL1 = system: IST-MEL1
LB2518-MEL = system: LB2518-MEL
LOXIMVI = system: LOXIMVI
MEL-HO = system: MEL-HO
MZ2-MEL = system: MZ2-MEL
MeWo = system: MeWo
RPMI7951 = system: RPMI7951
RVH-421 = system: RVH-421
SkMel28 = system: SkMel28
SkMel2 = system: SkMel2
SkMel30 = system: SkMel30
SkMel5 = system: SkMel5
UACC257 = system: UACC257
UACC62 = system: UACC62
WM115 = system: WM115
WM1716 = system: WM1716
WM1745 = system: WM1745
WM3526 = system: WM3526
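Note: cells treated in 1,536-well plates, then fixed and DAPI-stained, with nuclei counted from automated high-throughput microscope images.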

Row | SMILES | cell count (G361) [%] | cell count (IPC-298) [%] | cell count (IST-MEL1) [%] | cell count (LB2518-MEL) [%] | cell count (LOXIMVI) [%] | cell count (MEL-HO) [%] | cell count (MZ2-MEL) [%] | cell count (MeWo) [%] | cell count (RPMI7951) [%] | cell count (RVH-421) [%] | cell count (SkMel28) [%] | cell count (SkMel2) [%] | cell count (SkMel30) [%] | cell count (SkMel5) [%] | cell count (UACC257) [%] | cell count (UACC62) [%] | cell count (WM115) [%] | cell count (WM1716) [%] | cell count (WM1745) [%] | cell count (WM3526) [%]
1 | Cc1cc(Nc2cc(N3CCN(C)CC3)nc(Sc3ccc(NC(=O)C4CC4)cc3)n2)n[nH]1 [Tozasertib] + Cn1sc(=O)n(Cc2ccccc2)c1=O [TDZD-8] (first compound 0.03 µM, partner dose 2 µM) | 119 | 85.3 | 82.3 | 101 | 36.7 | 92.6 | 67.9 | 73.9 | 84.3 | 97 | 85.2 | 94.2 | 92.8 | 67.4 | 91.1 | 180 | 73.4 | 83.1 | 63.3 | 95.4
2 | CC[C@]1(O)C[C@H]2CN(CCc3c([nH]c4ccccc34)[C@@](C(=O)OC)(c3cc4c(cc3OC)N(C=O)[C@H]3[C@@](O)(C(=O)OC)[C@H](OC(C)=O)[C@]5(CC)C=CCN6CC[C@]43[C@@H]65)C2)C1 [vincristine] + CC1(C)NC(=O)N(c2ccc([N+](=O)[O-])c(C(F)(F)F)c2)C1=O [nilutamide] (first compound 0.0005 µM, partner dose 5 µM) | 82.8 | 106 | 75.9 | 99.9 | 67.8 | 91.2 | 105 | 41.8 | 47.1 | 77.9 | 75.1 | 92.9 | 58.9 | 45.7 | 57.1 | 57.1 | 27.4 | 32.2 | 114 | 50.3
3 | Cc1cc(Nc2cc(N3CCN(C)CC3)nc(Sc3ccc(NC(=O)C4CC4)cc3)n2)n[nH]1 [Tozasertib] + C[C@]1(c2nc3c(C(N)=O)cccc3[nH]2)CCCN1 [Veliparib] (first compound 0.03 µM, partner dose 7 µM) | 97 | 90.3 | 65.6 | 68.4 | 56.8 | 74.8 | 59.5 | 74.5 | 61.6 | 68.5 | 72 | 78.8 | 85.7 | 76.4 | 73.9 | 68 | 70.4 | 64 | 52.1 | 81.9
4 | N#CC[C@H](C1CCCC1)n1cc(-c2ncnc3[nH]ccc23)cn1 [ruxolitinib] + NCC(=O)Nc1ccc(-n2nc(C(F)(F)F)cc2-c2ccc3c(ccc4ccccc43)c2)cc1 [OSU03012] (first compound 5 µM, partner dose 5 µM) | 59.3 | 47.7 | 71.4 | 68.9 | 69.6 | 68.5 | 78.6 | 68.6 | 37.9 | 39 | 20.1 | 39.6 | 37 | 48.5 | 59.8 | 52.8 | 63.6 | 61.6 | 62.7 | 55.1
5 | Cc1cc(Nc2cc(N3CCN(C)CC3)nc(Sc3ccc(NC(=O)C4CC4)cc3)n2)n[nH]1 [Tozasertib] + Cn1cnc2c(F)c(Nc3ccc(Br)cc3Cl)c(C(=O)NOCCO)cc21 [selumetinib] (first compound 0.03 µM, partner dose 0.075 µM) | 61.7 | 45.1 | 85.3 | 43.4 | 101 | 76.4 | 40.9 | 61.5 | 99.4 | 147 | 60.3 | 53.2 | 48.3 | 69.4 | 92.5 | 54.9 | 55.5 | 77.9 | 69.8 | 58.4
6 | Cc1cc(Nc2cc(N3CCN(C)CC3)nc(Sc3ccc(NC(=O)C4CC4)cc3)n2)n[nH]1 [Tozasertib] + Cc1nc(Nc2ncc(C(=O)Nc3c(C)cccc3Cl)s2)cc(N2CCN(CCO)CC2)n1 [dasatanib] (first compound 0.03 µM, partner dose 0.02 µM) | 61.8 | 65.1 | 54.3 | 69.5 | 22.9 | 59.9 | 37.1 | 74 | 42.4 | 52.2 | 38.3 | 86.3 | 95.4 | 54.3 | 69.1 | 36 | 43.3 | 46.9 | 22.7 | 74.2
7 | CC[C@]1(O)C[C@H]2CN(CCc3c([nH]c4ccccc34)[C@@](C(=O)OC)(c3cc4c(cc3OC)N(C=O)[C@H]3[C@@](O)(C(=O)OC)[C@H](OC(C)=O)[C@]5(CC)C=CCN6CC[C@]43[C@@H]65)C2)C1 [vincristine] + CS(=O)(=O)c1ccc(C(=O)Nc2ccc(Cl)c(-c3ccccn3)c2)c(Cl)c1 [vismodegib] (first compound 0.0005 µM, partner dose 5 µM) | 69.5 | 83.1 | 94.5 | 67.6 | 76.7 | 76.4 | 74.2 | 80.1 | 51.7 | 85.4 | 73.6 | 74.9 | 61.6 | 82.5 | 85.8 | 43.2 | 64.4 | 37.3 | 64.5 | 62.4
8 | N#CC[C@H](C1CCCC1)n1cc(-c2ncnc3[nH]ccc23)cn1 [ruxolitinib] + Cn1cncc1[C@@](N)(c1ccc(Cl)cc1)c1ccc2c(c1)c(-c1cccc(Cl)c1)cc(=O)n2C [tipifarnib] (first compound 5 µM, partner dose 0.05 µM) | 82.3 | 106 | 75.1 | 84.2 | 87.1 | 80.7 | 106 | 86.8 | 62.2 | 75.9 | 88.5 | 88.6 | 103 | 74.4 | 86.3 | 77.9 | 66.4 | 69.9 | 104 | 78.8
